Reference: patent US20230226070A1, “TREATMENT OF THROMBOSIS AND ASSOCIATED DISORDERS WITH AN ANTI-PLATELET AGENT” (THE HEART RESEARCH INSTITUTE LTD, priority 2020, published 2023)

Test system: occlusive thrombus in the mouse carotid artery
Experiment: carotid artery thrombosis model: occlusive thrombus formation induced by electrolytic injury, recanalisation classified from carotid blood flow
Format: in vivo, C57BL/6 male mice
Settings: dual therapy: anticoagulant (hirudin 0.3 mg/kg bolus or argatroban 80 ug/kg bolus + 40 ug/kg/min) together with rt-PA 10 mg/kg

Compound	thrombolysis and vessel reocclusion (in words)
CC1CNc2c(cccc2S(=O)(=O)N[C@@H](CCCNC(=N)N)C(=O)N2CC[C@@H](C)C[C@@H]2C(=O)O)C1 (some centres unmarked) [argatroban, reference compound]	improves thrombolysis and reduces vessel reocclusion
hirudin [reference compound]	improves thrombolysis and reduces vessel reocclusion
